The source gives no read counts; variants with many changes may rest on few reads.
B1: LINE1-full (parent)
chain: UACGUAGGUGGUUUUCCCCUGAUAGUGCUAAGGGGGCCUGGAAGUUUGGACUGGGCAGAGCUCAACACAGCGUGGCAAAGUGGCUGUGGCUAGACUGCCUCUCUGGAUUCCUCGUCACUCAGCAGGGCAUCUCUGAGAGAAAUGCC

Variants of: B1
Test: self-cleavage, relative activity (ratio to wild type); higher = more cleavage; in vitro, sequencing; the parent is a self-cleaving ribozyme

| Variant | self-cleavage |
| --- | --- |
| U23C A57G A107G U112C | 2.3 |
| A22G U73A A78G | 0.17 |
| A22G U47A A59G G83U A117G U143C | 0 |
| U23C A64U A124G | 0.37 |
| A22U A107G U112C | 0.38 |
| A22U U45C A69C | 0.17 |
| A22G U62A A121G | 0.1 |
| U23A U109A A142G | 1.18 |
| U23C A94G U112C | 0.31 |
| A22U U62C U143G | 0.06 |
| U23A U104C C120U | 1.59 |
| A22G U108C U134C A140G | 1.08 |
| U23C A31G A64G U115C | 0.71 |
| U23C A57U A64G A107G U112C A117U A138U | 0 |
| A22G U73A A79G C95U U104C A129G | 0.33 |
| A22U U91C U104C | 0 |
| A22U A67G U91C | 0.16 |
| U23C A107U A138G | 1.7 |
| A22G U81C U112C G127A A140G | 0.88 |
| A22U A24G A43G A65G | 0.3 |
| U23C A65G A78G U119A | 0.19 |

| Variant | self-cleavage |
| --- | --- |
| U23C A64G A141G | 0.57 |
| A22U A59G A138G | 0.21 |
| A22G U26C A124U | 0.29 |
| U23C A67U U115C U119C U130A | 0.4 |
| A22G G126A A140G | 1.18 |
| A22U U23C C37G A67G A136G G139U | 0.54 |
| U23A U73C U96C U104A | 0 |
| A22G U85A U87A U130A | 0.07 |
| A22G U29A U47C | 0.51 |
| A22U U46C A129U | 1.38 |
| U23A U62A A69G A79U A121U | 0.02 |
| U23C A64U U108G | 0.74 |
| A22G U26A U104A U119A G122U | 0.81 |
| A22G U26C A43G A78G | 1.53 |
| A22G U45C U46C C84U U85A U115A A138C | 0.09 |
| U23A U87C A140C | 0 |
| A22U U26C U73A U87C | 0.14 |
| U23A U47A C120U | 0.66 |
| A22U U104C A124G U132C | 0 |
| A22U U47C U102C | 1.28 |
| U23C A67G A140U U143C | 0.8 |

| Variant | self-cleavage |
| --- | --- |
| A22G U23A A69G G74A | 0 |
| A22U A77U A94U | 0.31 |
| A22U A65G U143A | 0.09 |
| A22U U104C U119A | 2.25 |
| A22G U46A U108C | 1.89 |
| A22U A50G A59U A142G | 0.45 |
| A22U U29C U96C | 0.66 |
| A22U U46C U62C C98U U132C | 0.06 |
| A22G U119C A142G | 1.62 |
| A22U A42G A94G C98A | 0.42 |
| A22U C61U A77U U132C A142G | 0.06 |
| U23C A77U A141U | 1.68 |
| A22G U46C A136G | 2.41 |
| U23C A24G A42U U47A U134C G144A | 0.67 |
| A22U A121G U132C | 1.31 |
| A22G U62C C71U | 0.04 |
| U23C A42G U108C | 1.35 |
| U23A U39C A65G A78G U130A | 0.19 |
| A22U A121G G122A A124G | 0.74 |
| A22U G35A A78G | 0.5 |
| A22U U115C U130A | 1.76 |

| Variant | self-cleavage |
| --- | --- |
| U23A A65U U134C | 0.3 |
| A22U U23C U102C U134G | 2.68 |
| A22G U39C A77U | 0.49 |
| A22G U45A A78U A129G | 1.82 |
| U23A G34C U100A | 0.75 |
| U23C A43G U62A | 0.09 |
| U23C A43G A57G A141G | 1.31 |
| A22G U96C U102C U112C A138U | 0 |
| A22U U62A U134A A138G | 0.01 |
| U23A A64G A124U | 0.58 |
| U23C A30G A121U | 1.01 |
| A22G U109C A129G | 1.62 |
| A22G U100C C116U A138G A140G | 0.96 |
| A22G U119C A124G | 0.46 |
| A22U A57C U109C A124G | 0 |
| A22G G125U G126A | 1.65 |
| U23A U62C U100C A136G A138G | 0 |
| U23A A24U A31G A107G C116U | 1.61 |
| A22U A65G U112C C113U | 0 |
| A22G U45C G82A | 1.53 |
| A22U G60A A136U | 0.03 |
